Hit rate of the full screen: of about 50,000 compounds, about 800 (1.6%) showed an effect of 50% or more. The list shows a part of the results.

The results in this text go back to PubChem BioAssay AID1240 (Sanford-Burnham Center for Chemical Genomics, 2008).

For this assay, the target named is Bcl-2-like protein 10 (Homo sapiens) (UniProt Q9HD36). Put plainly: TR3 peptide-Bcl-B binding displacers, biochemical primary FP assay, phenotype converters (AID 1240).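 Also: 0% = Bcl-B with tracer peptide and DMSO and 100% = tracer peptide lacking Bcl-B.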 The conditions noted are these: GST-Bcl-B / FITC-TR3 peptide fluorescence polarization; stronger effect = higher value; compound at 3.75 mg/L. On the technique in general: Polarisation of emitted light reports the rotation of a fluorescent probe.
Sequence of UniProt Q9HD36 (Q9HD36 whole entry, looked up): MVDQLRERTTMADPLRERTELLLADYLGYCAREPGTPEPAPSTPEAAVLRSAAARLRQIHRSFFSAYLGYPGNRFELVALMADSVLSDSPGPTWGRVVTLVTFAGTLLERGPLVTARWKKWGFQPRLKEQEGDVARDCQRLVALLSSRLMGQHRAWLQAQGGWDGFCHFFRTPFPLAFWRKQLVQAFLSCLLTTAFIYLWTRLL
Take `O=C(Nc1cccc(Cl)c1)c1cccc(NC(=O)c2cccs2)c1`: the displacement is -1.3%. In the case of `Oc1ccc(-c2cn3ccccc3n2)cc1O`, the displacement came out at 23.6%.

On to `CC(=O)Nc1cc(C(N)=O)c(Cl)cc1Cl`, for which the displacement was -9.1%. Then `COc1cc(CN2CCN(C3C4CC5CC(C4)CC3C5)CC2)cc(OC)c1OC` (stereo unspecified), with 2%; and `Cc1ccc(Cl)cc1NC(=O)c1cncc(Br)c1`, with 11.1%.

As for `O=C(Nc1cccc2ccccc12)C1C2CCC3C(CCC21)C3(Cl)Cl` (stereo unspecified), the displacement was 0.2%. For `CCC(Oc1ccccc1)C(=O)N1CCN(C(=O)C(CC)Oc2ccccc2)CC1` (stereo unspecified), the displacement is 8.9%. Then `O=C(Cc1ccc(-c2ccccc2)cc1)NNC(=O)c1ccco1`, with -13.5%. With `O=C(c1cccc(Cl)c1)N1CCN(c2ccccn2)CC1`, the displacement was -8%. To `O=C1C(=O)N(c2cccnc2)C(c2ccc(Cl)cc2)/C1=C(\O)c1ccc(Cl)cc1` (stereo unspecified) belongs 1%.

Regarding `Cc1ccccc1CC1S/C(=N\N=C\c2ccc(N(C)C)cc2)NC1=O` (stereo unspecified), the displacement was determined as 18.1%. `CC(C)CCSc1nc2ccccc2[nH]1`: the displacement was 10.5%. Consider `CCOCCOC(=O)C1=C(C)NC2=C(C(=O)CC(C)(C)C2)C1c1cccc(Cl)c1Cl` (stereo unspecified), for which the displacement is 3.1%. `O=C(Nc1c[nH]c(=O)[nH]c1=O)c1ccc2c(c1)C(=O)N(c1ccccc1-c1ccccc1)C2=O`: the displacement is 19.1%.

Turning to `Cc1ccc(N(CC(=O)NCCSc2ccccn2)S(=O)(=O)c2ccc(F)cc2)cc1`, the displacement came out at 2.7%.

Take `Cc1cccc(NC(=O)CN(c2ccc(Br)cc2)S(=O)(=O)c2ccccc2)c1C`: the displacement was -1.1%. `CN1C(c2ccccc2)CC(O)(c2ccccc2)CC1c1ccccc1` (stereo unspecified): the displacement is 12.8%. As for `O=C(Nc1c(-c2cccs2)nc2ccc(Cl)cn12)c1ccc(Cl)cc1`, the displacement amounted to 6.7%. Turning to `CCOc1cc(C(=O)Nc2ccc(N3CCN(C(C)=O)CC3)cc2)cc(OCC)c1OCC`, the displacement amounted to 6.9%. Take `CCOc1ccc(C(=O)Nc2cc(C(=O)O)cc(C(=O)O)c2)cc1`: the displacement is -9.1%.

For the molecule `COc1cc(/C=C2/C(C)=C(C#N)c3nc(N)c(C#N)c(C)c32)ccc1O`, the displacement amounted to 19.6%. To `CCCCNCCCCCOc1c(Cl)cccc1Cl` belongs 13.1%; to `Cn1cnc2c1c(=O)n(Cc1ccccc1F)c(=O)n2C`, 7.5%. Take `O=C(/C=C1/Nc2ccccc2NC1=O)Nc1cccc(C(F)(F)F)c1`: the displacement is 8.5%.

`COc1ccc(/C=C/C(=O)c2ccc3c(c2)OCCO3)c(OC)c1`: the displacement was -6.7%. In the case of `COc1ccc(NC(=O)c2c(Cl)ccc(Cl)c2OC)c(OC)c1`, the displacement was 1.7%. In the case of `NC(=O)c1ccccc1NC(=O)c1ccccc1I`, the displacement came out at 11.5%. As for `Cc1ccccc1-c1cc(C(=O)N2CCOCC2)c2ccccc2n1`, the displacement turned out to be 4%. As to `O=C(CC(c1ccccc1)c1ccccc1)N1CCCCC1`, the displacement is -7.2%. Regarding `Cc1ccc(OCC(=O)Nc2ccc3c(c2)OCO3)c(Br)c1`, the displacement was 8.7%.

As for `CCOC(=O)c1c(N)c(C#N)n2c1CCC2`, the displacement was determined as 3.7%.

As for `Cc1ccc(NC(=O)/C(C#N)=C\c2cc(Br)cc(Br)c2O)c(C)c1`, the displacement amounted to 2%. To `O=C(c1ccccc1I)N1CCN(c2ccc(F)cc2)CC1` belongs -6.4%. In the case of `CCOC(=O)C1C(=O)C=C(c2ccc(OC)cc2)CC1c1ccccc1` (stereo unspecified), the displacement was found to be 0.4%. For the molecule `COc1ccc(S(=O)(=O)NC2CCCCC2)cc1Br`, the displacement was found to be 3.5%. Then `COC(=O)c1c(NC(=O)C2CC=CCC2C(=O)O)sc2c1CCC(C)C2` (stereo unspecified), with -10.4%; and `O=C(Nc1nc(-c2ccc3ccccc3c2)cs1)c1cc(Cl)ccc1Cl`, with -5.9%.

On to `Cc1ccc(C(=O)/C=C/c2ccc(-c3cccc(Cl)c3)o2)cc1`, for which the displacement was -38.8%. For `CS(=O)(=O)c1ccc2nc(NC(=O)c3ccccc3)sc2c1`, the displacement was determined as 10.7%. With `CCc1ccccc1NC1=C(Cl)C(=O)N(c2ccccc2Cl)C1=O`, the displacement stood at 1.9%. To `Fc1ccc(NC(=S)N2CCN(c3cccc(C(F)(F)F)c3)CC2)cc1` belongs 0.8%; to `CC(C(=O)Nc1ccc(NC(=O)c2ccco2)cc1)(c1ccccc1)c1ccccc1`, -5.1%; to `COc1ccc(CCNC2CC(=O)N(c3ccc(C)cc3)C2=O)cc1OC` (stereo unspecified), 2.4%. For `C=CCNC(=S)N1CCN(CCNC(=O)C(=O)Nc2ccc(C)cc2)CC1`, the displacement was found to be 5.5%. To `Cc1ccccc1CNC(=O)c1ccc(CN(c2ccccc2)S(C)(=O)=O)cc1` belongs 3.9%. For the molecule `O=C(Nc1ccccc1OC(=O)c1ccc(Cl)cc1)c1ccc(Cl)cc1`, the displacement was 19.1%. Take `Cc1ccc(-c2csc(NC(=O)c3ccc([N+](=O)[O-])cc3Cl)n2)c(C)c1`: the displacement was -7.2%. Regarding `CCOc1cc(/C=N\NC(=O)c2ccc([N+](=O)[O-])cc2)cc(Br)c1O`, the displacement is 4.8%. To `CNC(=O)C(=O)NCCc1ccccc1` belongs 6.5%.

With `FC(F)(F)c1cc(/C=C/c2ccccc2)n[nH]1`, the displacement was 15.5%.

Regarding `CCOc1ccc(CNCc2ccccc2OC)cc1`, the displacement was -16.7%. Turning to `COc1cc(/C=C/C(=O)O)cc(S(=O)(=O)NCCCC(=O)O)c1OC`, the displacement stood at 2.4%.

As to `Cc1ccc(C(=O)Nc2ccc(Oc3ccccc3)cc2)o1`, the displacement was -2.2%. As for `CN1CCC(N(C)S(=O)(=O)c2ccccc2[N+](=O)[O-])CC1`, the displacement came out at 15%. Take `Cc1ccc(OCC(=O)Nc2ccc(Cl)cn2)c(Br)c1`: the displacement was found to be 9.2%.

For the molecule `CCOC(=O)C1=C(C)NC2=C(C(=O)CC(c3ccccc3)C2)C1c1ccc(C)o1` (stereo unspecified), the displacement came to 8%. With `O/N=C\c1ccc(-c2ccc(Cl)c(Cl)c2)o1`, the displacement is -7.3%. For `O=C(Nc1nc(-c2ccc(Cl)cc2)cs1)c1ccc(S(=O)(=O)N2CCCCC2)cc1`, the displacement is -9.5%. Consider `Cc1cc(Cl)ccc1OCC(=O)NNC(=O)CC#N`, for which the displacement is -22.6%.

In the case of `CC(C)c1ccc(/C=C2/SC(=S)N(CN3CCOCC3)C2=O)cc1`, the displacement was 4.5%. Then `O=C(N/N=C\c1c(O)ccc2ccccc12)c1cccc2cc[nH]c12`, with 34.1%. Regarding `COc1ccccc1N1CCN(C(=O)COc2ccc(Cl)cc2C)CC1`, the displacement is -4.5%.

Consider `C=CCn1c(CSc2nc3ccccc3s2)n[nH]c1=S`, for which the displacement came out at 17.3%. To `COc1ccc(C2C(C#N)=C(N)Oc3cc(N)ccc32)cc1` (stereo unspecified) belongs 0%. With `Cc1ccc(OCC(=O)Nc2ccccc2Cl)c(C)c1`, the displacement was found to be 10.7%. For `COc1cccc(N2C(=O)C(=O)/C(=C(\O)c3ccccc3)C2c2ccc([N+](=O)[O-])cc2)c1` (stereo unspecified), the displacement was 4.1%. In the case of `COc1ccc(OC)c(NC(=O)CN(CCc2ccccc2)S(=O)(=O)c2ccccc2)c1`, the displacement worked out at 0.7%. Turning to `COC(=O)C(NC(C)=O)C12CC3CC(CC(C3)C1)C2` (stereo unspecified), the displacement turned out to be 4.2%. Take `CC1=C(C(=O)OC2CCCC2)C(c2ccccc2C(F)(F)F)C2=C(CCCC2=O)N1` (stereo unspecified): the displacement was found to be 2.6%. Then `CC1(C)Cc2ccccc2/C(=C/SC(=N)N)N1`, with -16.6%; and `COc1ccc(Oc2ccc(N)cc2)cc1`, with 14%. Regarding `CCOc1ccccc1N(CC(=O)Nc1ccccc1Cl)S(=O)(=O)c1ccccc1`, the displacement was -3.2%. For `Cc1cc(=O)[nH]c(SCCOc2ccccc2C)n1`, the displacement is 11.6%. As to `COc1ccc(CCNC(=O)c2cnccn2)cc1`, the displacement is -3%. With `CC(=O)Oc1ccc(C(=O)Nc2cccc(C(=O)NCC(C)C)c2)cc1`, the displacement is 5.6%. As to `c1ccc(-c2nnc(-c3ccccc3)c3nsnc23)cc1`, the displacement was 5.3%.

In the case of `Cc1ccc(N2NC(=O)/C(=C/c3ccc4c(c3)OCO4)C2=O)cc1Cl`, the displacement is 16.8%. To `Cc1ccc(N2NC(=O)/C(=C/c3ccc(N(C)C)cc3)C2=O)cc1C` belongs 9.3%; to `Cc1cc(NC(=O)c2ccccc2C)ccc1NC(=O)c1cccs1`, -0.6%.

For `Cc1sc(C2C(C#N)=C(N)OC3=C2C(=O)CC(C)(C)C3)cc1[N+](=O)[O-]` (stereo unspecified), the displacement is -8.4%.

Regarding `CCC(=O)N(CCC1(c2ccccc2)CCOC(C)(C)C1)c1ccc(OC)c(OC)c1` (stereo unspecified), the displacement is -14.8%. As to `O=C(CSCC(=O)Nc1ccc2ccccc2c1)Nc1cccc([N+](=O)[O-])c1`, the displacement was 2.7%.

In the case of `O=C1c2ccccc2CCC1C1(O)C(=O)Nc2ccccc21` (stereo unspecified), the displacement turned out to be 9.2%.

As for `CCOC(=O)C(O)C1CCc2c([nH]c3ccc(C)cc23)C1=O` (stereo unspecified), the displacement was 6.5%. In the case of `Cc1ccc2nc(-c3ccc(C)c(NC(=O)COc4ccc(Cl)cc4C)c3)oc2c1`, the displacement was -8.3%. `COc1ccc(Cl)cc1NC(=O)CN1C(=O)c2ccccc2C1=O`: the displacement was 6.6%. Then `CCC(C(=O)Nc1nc(-c2ccc(F)cc2)cs1)c1ccccc1` (stereo unspecified), with 7.7%; and `CC(C)(C)C1(C)OC(O)(C(Cl)Cl)CC1=O` (stereo unspecified), with -8.5%; and `COc1ccc(-c2nc3c(n2O)CCc2nonc2-3)cc1OC`, with 7.1%. Turning to `Cc1ccc(N2C(=O)NC(=O)/C(=C/c3cccc(OCC(=O)O)c3)C2=O)cc1`, the displacement is -19.8%.

Take `CCOC(=O)c1ccccc1NC(=O)c1cnccn1`: the displacement is -36.5%. Then `Cc1ccccc1OCC(=O)Nc1ccc(Cl)cc1`, with 12.8%. Then `Clc1ccc(/C=N/Nc2nc(N3CCOCC3)nc(N3CCOCC3)n2)c(Cl)c1`, with -9.9%. Regarding `COc1ccc(CC(=O)NC2CCCC2)cc1`, the displacement is -9.7%. As for `Clc1ccc(CSc2nnc(-c3ccc(Br)cc3)o2)c(Cl)c1`, the displacement stood at 10.6%. To `Cc1c(Cc2ccccc2)c(=O)oc2cc(O)ccc12` belongs -38.1%; to `COC(=O)C1=C(C(=O)OC)SC(=C2C(=S)C(C)(C)N(C(=O)Cc3ccccc3)c3c(OC)cccc32)S1`, -4.5%; to `COc1ccc(C(=O)O)cc1S(=O)(=O)N1CCC(C)CC1`, -4%. Then `O=C(Cc1ccccc1)Nc1nnc(COc2ccc(Cl)cc2Cl)s1`, with 10.9%. As to `COc1ccc(-c2cc(C(=O)NCc3ccc(F)cc3)c3ccccc3n2)cc1OC`, the displacement is 7.5%. `O=C(Cn1c(O)c(N=NC(=O)c2ccc([N+](=O)[O-])cc2)c2ccccc21)Nc1ccccc1`: the displacement was 2.6%.

With `Cc1c2n(c3ccccc13)CCNC2c1ccccc1` (stereo unspecified), the displacement is 14.5%. For `O=C(O)C(CO)NC(=O)C(F)(F)C(F)(F)C(=O)NC(CO)C(=O)O` (stereo unspecified), the displacement was 2%.

Regarding `COC(=O)c1ccccc1NC(=O)Nc1ccc(Cl)cc1Cl`, the displacement is 9%.

As for `O=c1cc(N2CCN(Cc3ccccc3)CC2)c2ccccc2n1-c1ccccc1`, the displacement is -0.6%. `Cc1cc(C)nc(NS(=O)(=O)c2ccc(N/C=C\C(=O)c3ccc4ccccc4c3)cc2)n1`: the displacement came out at 14.7%. `COc1ccc2c(c1)CCC1=C2NC(=S)NC1c1ccc(N(C)C)cc1` (stereo unspecified): the displacement is -17.6%. Take `Cc1ccc(-c2nc(N/N=C/c3ccncc3)c3ccccc3n2)cc1`: the displacement stood at 8.4%. `Cc1ccc(C(=O)Nc2sc3c(c2C#N)CCC(C)C3)cc1C` (stereo unspecified): the displacement was 3.3%. As for `Cc1cc(C)n(C(=O)CNC(=O)COc2ccccc2C)n1`, the displacement was determined as 10.5%. In the case of `Cc1ccc(OCC(O)CN2C(C)(C)CC(O)CC2(C)C)c(C)c1` (stereo unspecified), the displacement came out at 6.8%.
